From the supplement of paper PMC3334620
Over roughly 33,000 sequences, “E-score (-0.5 to 0.5)” has its median near -0.035; the highest 2% begin near 0.34. This is one part of the list.

Biological target: T1, Mot3 (UniProt P54785)
T1 sequence: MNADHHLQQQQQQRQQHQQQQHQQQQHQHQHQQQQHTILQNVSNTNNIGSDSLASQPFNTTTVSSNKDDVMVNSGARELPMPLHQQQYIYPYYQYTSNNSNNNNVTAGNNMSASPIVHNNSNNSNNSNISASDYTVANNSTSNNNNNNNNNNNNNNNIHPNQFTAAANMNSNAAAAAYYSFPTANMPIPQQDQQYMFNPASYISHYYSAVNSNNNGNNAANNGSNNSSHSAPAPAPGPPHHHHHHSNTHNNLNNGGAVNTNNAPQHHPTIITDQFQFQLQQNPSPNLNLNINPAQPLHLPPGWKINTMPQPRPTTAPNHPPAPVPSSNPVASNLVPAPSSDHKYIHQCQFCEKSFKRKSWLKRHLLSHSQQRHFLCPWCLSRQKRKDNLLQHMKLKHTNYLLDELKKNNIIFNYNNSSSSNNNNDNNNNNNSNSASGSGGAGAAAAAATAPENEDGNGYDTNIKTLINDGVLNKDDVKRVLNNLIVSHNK
Test: PBM E-score (8-mer binding enrichment) (E-score (-0.5 to 0.5)); higher = stronger / more preferred TF binding; most listed sequences are background and not binding sites
Details: protein concentration: 200 nM; construct: GST-full length
Method in brief: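 Universal all-10-mer Agilent arrays, fresh or stripped once, were converted to double-stranded form by primer extension. GST-tagged yeast transcription factors from PURExpress in vitro transcription/translation, full-length or DNA-binding domain only, were applied at about 100-200 nM and detected with fluorescent anti-GST. After masliner normalisation, the Universal PBM Analysis Suite scored each ungapped eight-base word together with its reverse complement by E-score.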

| Sequence | PBM E-score |
| --- | --- |
| CTATGGGA | -0.187 |
| GACGATCC | -0.0936 |
| ACGCGGCG | 0.11 |
| ACCTTTCA | -0.0642 |
| ATATTGTC | -0.136 |
| GCCCAACC | -0.0528 |
| CAGACACG | 0.087 |
| CTCCAATC | -0.113 |
| ATGCTAAG | -0.0299 |
| AACGTGTG | 0.128 |
| AAGAGCCT | 0.0133 |
| CTGATTGC | -0.0147 |
| GATACAGC | -0.158 |
| ACGCTCAC | -0.0704 |
| GTCAGATA | -0.0988 |
| CTCGGAGA | -0.205 |
| ATATCTAA | 0.0848 |
| AAATCGGG | -0.0585 |
| TCTTAAGA | -0.0988 |
| ATGCTGCA | 0.088 |
| ACTTTTCT | -0.0827 |
| GCCCCCCA | -0.345 |
| AAACAGTT | 0.0645 |
| GATTGGCC | -0.2 |
| GCTACAGC | -0.167 |

| Sequence | PBM E-score |
| --- | --- |
| ACTGCCGA | -0.0148 |
| CACACAAC | 0.199 |
| AGTAGCAT | -0.0628 |
| AAACTTGA | 0.0965 |
| ACGCACTC | 0.0335 |
| AGTTGCAA | 0.00053 |
| AAGACTCA | -0.24 |
| ATGATACA | 0.0801 |
| AAATACTT | 0.0748 |
| GGCGTAAC | -0.0669 |
| ACATACGC | 0.207 |
| ATAAACAG | 0.0736 |
| CGGTTATC | -0.224 |
| GGTAGATA | -0.0433 |
| TAACTAGA | 0.141 |
| AATAATGG | 0.0428 |
| CAATCACG | -0.0483 |
| TGTAAGAA | 0.279 |
| TCCGGCAA | -0.0328 |
| CGAGGTAA | -0.0165 |
| CTTAGGTA | 0.139 |
| AACGACTA | 0.0206 |
| AGAGACCA | -0.126 |
| AACCCGCT | -0.102 |
| ACTGAATA | 0.129 |

| Sequence | PBM E-score |
| --- | --- |
| CAAGCGCA | 0.142 |
| CTTCTGAC | -0.0331 |
| ACGAGCTG | -0.162 |
| CCATAGGC | 0.239 |
| TGCTCCAA | -0.0843 |
| ATCACAGG | 0.129 |
| ACATGAAC | 0.256 |
| CCCAGTCG | -0.232 |
| AAACGTAC | 0.0979 |
| ATGCTACG | -0.0447 |
| TCTCGTAA | 0.116 |
| GTATTCAC | 0.188 |
| CCGTGCTA | 0.0935 |
| ACTCAGCC | -0.319 |
| ATACGTAG | 0.24 |
| GTTCTGCA | 0.0276 |
| AATTTCTG | 0.00309 |
| AAATTTAA | 0.0818 |
| GAGCATAA | 0.0505 |
| ATGACAAT | 0.123 |
| CTCATAAC | -0.0328 |
| ATGAATGC | 0.0302 |
| TCGCTACA | -0.0346 |
| ACCGGCGT | 0.0467 |
| TAAAGACA | 0.185 |

| Sequence | PBM E-score |
| --- | --- |
| CCACCAAC | -0.213 |
| CAGGCTGA | -0.219 |
| GAATGCTC | -0.255 |
| CGCCTCTC | -0.366 |
| AGTTAATA | 0.201 |
| AGACAGCT | -0.136 |
| CGAATCGC | -0.174 |
| AGGGTGAT | -0.19 |
| CTCACCGC | -0.186 |
| GCACCCGC | -0.138 |
| CGCAAAAC | 0.0841 |
| ACTGCACT | -0.108 |
| ACGCCTTC | 0.236 |
| AGACCTCT | -0.223 |
| ATAGGTAA | 0.356 |
| CACGAATG | 0.0319 |
| CTTGAGAC | -0.203 |
| CATGACCG | 0.101 |
| ACTGCACA | 0.126 |
| CATCGTCG | -0.172 |
| ATGCCCAT | -0.0499 |
| CTTTGAGC | -0.0874 |
| AGTCGCCA | -0.369 |
| CTCTTAAG | -0.0429 |
| ATCCCCGG | -0.272 |

| Sequence | PBM E-score |
| --- | --- |
| CGAAGACC | -0.286 |
| TCCTTCCA | 0.229 |
| CATTATTC | 0.0976 |
| ATCCTGCG | 0.0225 |
| ATAGGTCG | -0.172 |
| ACACAAGG | 0.191 |
| GGGAAGAA | -0.12 |
| AGCAGGAA | 0.395 |
| CCGGAACG | -0.249 |
| AAGGATCT | -0.142 |
| CGAAACTC | -0.226 |
| ATAGACTG | -0.0804 |
| ATCCGAAT | 0.0428 |
| CTGTGATA | 0.0306 |
| TCGAACCA | -0.128 |
| CGTCGTCA | -0.18 |
| AGTCAGGC | 0.217 |
| CATCTGAA | -0.223 |
| GAATCATC | 0.0123 |
| GGCGGTTA | -0.119 |
| GCTCGTAC | -0.124 |
| ACCGATTC | -0.236 |
| GCAAGAGA | 0.162 |
| AGCATTAA | -0.0841 |
| CTGTGGTC | -0.0184 |

| Sequence | PBM E-score |
| --- | --- |
| CTATCAGA | -0.232 |
| ACGCGCGC | 0.184 |
| AAACCCCA | 0.0314 |
| AATACATG | 0.413 |
| CGATATTC | -0.261 |
| ACCTCTAA | -0.196 |
| AGGCTGGG | -0.0602 |
| ACGACCAG | 0.0678 |
| TGTATTAA | 0.306 |
| CTGCGAAC | 0.0471 |
| AAGGACAG | -0.152 |
| GTTAGGTA | 0.26 |
| ATATCGTA | 0.0251 |
| ATAGAGCC | -0.0336 |
| GCGACGGA | -0.333 |
| ACAGGAGG | -0.0434 |
| AGATATAC | 0.0941 |
| AATGGAGG | -0.16 |
| GGGGCCTA | -0.0941 |
| CTATCAAG | 0.0164 |
| GTCTTCAC | -0.184 |
| GTAGTAAA | 0.187 |
| ACAACTAC | 0.15 |
| GCACGTAA | 0.293 |
| ATCCGCAG | -0.0547 |

| Sequence | PBM E-score |
| --- | --- |
| CGCTATAG | -0.143 |
| GTCTTCCA | -0.174 |
| ACATAATG | 0.182 |
| ACGATAAT | 0.0572 |
| ATAATTAC | 0.258 |
| AGAAACGC | -0.00015 |
| ATGTCCGG | -0.212 |
| AAAGGAGA | -0.0548 |
| ACCGGCTA | -0.0818 |
| GGAAGCGA | -0.187 |
| GCTTGACC | -0.215 |
| AAGGATAA | -0.00925 |
| CCAAGGTA | 0.132 |
| GGCAGGTA | 0.277 |
| ATATTAGA | 0.232 |
| GTGTTAAA | 0.384 |
| CCATGCCG | -0.0178 |
| AAAGACTC | -0.264 |
| CGCTCAGC | -0.284 |
| CGTCTGCA | -0.0254 |
| GAAATGTA | 0.0874 |
| CGAGTGAA | 0.0928 |
